From PubChem BioAssay (NCATS)
Several values for one entry are separate records, joined by “and”; a condition that tells them apart may be missing. Equal entries are not always repeated. The shares of active, inactive and inconclusive entries below differ from those in the screen. A potency beside an inconclusive call is a rough fit, not a confirmed value. Activity calls are given as the source filed them. Unless noted, calls come from the whole dose curve; as a rule, active = well fitted curve in the direction sought with a large enough effect; inconclusive = small, poorly fitted or top-dose-only effect, or another doubt; inactive = no such curve, though single readings can be large; an effect the other way counts as inactive or inconclusive.

Key:
[1] = A High-Content qHTS Against Drug Library for the Identification of Small Molecules that Inhibit DYT1 Early Onset Primary Dystonia-Associated Cell Pathology (AID 1645839; calls by dose curve); details: HEK293 Flp-In EGFP-delE TorsinA, punctate imaging, 48 h; series mostly up to 46.1 µM
Method in brief: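 Readout: %pathology, the punctate EGFP-TorsinA distribution from imaging, as the primary channel and cell count as the toxicity counterscreen. HEK293 Flp-In cells expressing delE TorsinA were induced with tetracycline and treated with compound for 48 h.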

[2] = Primary qHTS for inhibitors of nuclear receptor binding SET domain protein 2 (NSD2) in an isogenic RCH-ACV NSD2 p.E1099K mutant (9B) (AID 1645876); details: RCH-ACV NSD2 E1099K (9B) viability, CellTiter-Glo, 72 h; series mostly up to 44.9 µM; note: nearly all actives have a fitted effect of over 70% in size
[3] = Primary qHTS for inhibitors of nuclear receptor binding SET domain protein 2 (NSD2) in an RCH-ACV wild type WT cells (2C) (AID 1645877); details: RCH-ACV (leukaemia line) NSD2 WT (2C) viability, CellTiter-Glo, 72 h; series mostly up to 44.9 µM; note: nearly all actives have a fitted effect of over 70% in size
[4] = target: Rap guanine nucleotide exchange factor 4 (Homo sapiens) (UniProt Q8WZA2); test: Confirmatory qHTS for agonist of cAMP-regulated guanine nucleotide exchange factor 4 (EPAC2) (AID 1645884); details: EPAC2 GEF activity, Rap1B-BODIPY-GDP fluorescence;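 note: nucleotide exchange releases bodipy-GDP from Rap1 and this lowers its fluorescence; nearly all actives have a fitted effect of over 65% in size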
[5] = target: Rap guanine nucleotide exchange factor 4 (Homo sapiens) (UniProt Q8WZA2); test: Confirmatory qHTS for antagonist of cAMP-regulated guanine nucleotide exchange factor 4 (EPAC2) (AID 1645885); details: EPAC2 Rap1B-BODIPY-GDP exchange fluorescence, biochemical; series mostly up to 114 µM; note: nearly all actives have a fitted effect of over 25% in size
[6] = target: Cytochrome P450 2D6 (Homo sapiens) (UniProt P10635); test: Cytochrome P450 family 2 subfamily D member 6 (CYP2D6) small molecule antagonists: luciferase biochemical (cell-free) qHTS assay (AID 1645840; active = well fitted curve in the direction sought with a large enough effect in the repeat runs; inconclusive = weak or mixed curves; inactive = no such curve, though single readings can be large; an effect the other way counts as inactive or inconclusive; note: nearly all actives have a fitted effect of over 55% in size); details: P450-Glo CYP2D6 enzyme, luciferin luminescence, 1 h; series mostly up to 57.4 µM
Method in brief: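 P450-Glo luminescent screen: recombinant CYP2D6 enzyme–proluciferin substrate mix preincubated with compound 10 min at room temperature, then NADPH regeneration added for 1 h at room temperature. Detection reagent added for 20 min; luciferin light read as relative luminescence units.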

[7] = target: Cytochrome P450 2C9 (Homo sapiens) (UniProt P11712); test: Cytochrome P450 family 2 subfamily C member 9 (CYP2C9) small molecule antagonists: luciferase biochemical (cell-free) qHTS assay (AID 1645842; active = well fitted curve in the direction sought with a large enough effect in the repeat runs; inconclusive = weak or mixed curves; inactive = no such curve, though single readings can be large; an effect the other way counts as inactive or inconclusive; note: nearly all actives have a fitted effect of over 55% in size); details: P450-Glo CYP2C9 enzyme assay, luciferin luminescence; series mostly up to 57.4 µM
Method in brief: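 Luminescence, after 20 min with luciferin detection reagent, reflected CYP2C9 turnover during a 1 h NADPH-driven reaction at 37C. Enzyme-substrate mix contained 0.4% bovine serum albumin and was preincubated with compound 10 min at room temperature.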

[8] = Primary qHTS for small molecule stabilizers of the endoplasmic reticulum resident proteome: Secreted ER Calcium Modulated Protein (SERCaMP) assay (AID 1508630); details: SH-SY5Y GLuc-SERCaMP (Gaussia luciferase released on ER calcium loss) secretion, thapsigargin, luminescence; series mostly up to 38.4 µM
Method in brief: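 GLuc-SERCaMP-expressing SH-SY5Y cells, pretreated 16 h with compound, are challenged with thapsigargin to empty ER calcium stores; after 4 h, coelenterazine is added directly to the medium and luminescence is imaged.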

[9] = target: Cytochrome P450 3A4 (Homo sapiens) (UniProt P08684); test: Cytochrome P450 family 3 subfamily A member 4 (CYP3A4) small molecule antagonists: luciferase qHTS assay (AID 1645841; active = well fitted curve in the direction sought with a large enough effect in the repeat runs; inconclusive = weak or mixed curves; inactive = no such curve, though single readings can be large; an effect the other way counts as inactive or inconclusive; note: nearly all actives have a fitted effect of over 45% in size); details: P450-Glo CYP3A4 enzyme assay, luciferin luminescence; series mostly up to 57.4 µM
Method in brief: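 P450-Glo CYP3A4 enzyme with proluciferin substrate was preincubated with DMSO-dissolved compounds for 10 min at room temperature. NADPH regeneration solution started a 1 h reaction. Detection reagent stopped it, and luminescence was read after 20 min.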
Potency is the fitted concentration of half-maximal effect; tags give direction and shape of the fitted curve.

Sequence of UniProt P10635 (P10635 whole entry, looked up): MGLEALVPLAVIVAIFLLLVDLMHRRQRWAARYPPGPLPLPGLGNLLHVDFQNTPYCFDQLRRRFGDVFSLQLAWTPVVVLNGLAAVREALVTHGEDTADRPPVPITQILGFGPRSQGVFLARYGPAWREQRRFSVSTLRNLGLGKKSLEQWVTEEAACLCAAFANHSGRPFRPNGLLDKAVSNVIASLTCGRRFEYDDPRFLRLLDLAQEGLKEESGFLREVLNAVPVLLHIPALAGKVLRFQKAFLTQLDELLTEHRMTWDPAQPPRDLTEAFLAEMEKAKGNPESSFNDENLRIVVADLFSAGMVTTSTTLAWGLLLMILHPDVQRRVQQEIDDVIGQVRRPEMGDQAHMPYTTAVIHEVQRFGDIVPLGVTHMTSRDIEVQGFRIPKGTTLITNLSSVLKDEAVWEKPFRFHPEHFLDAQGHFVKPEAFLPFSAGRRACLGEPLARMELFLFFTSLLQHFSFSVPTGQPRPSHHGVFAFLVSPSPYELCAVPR
Sequence of UniProt P11712 (P11712 whole entry, looked up): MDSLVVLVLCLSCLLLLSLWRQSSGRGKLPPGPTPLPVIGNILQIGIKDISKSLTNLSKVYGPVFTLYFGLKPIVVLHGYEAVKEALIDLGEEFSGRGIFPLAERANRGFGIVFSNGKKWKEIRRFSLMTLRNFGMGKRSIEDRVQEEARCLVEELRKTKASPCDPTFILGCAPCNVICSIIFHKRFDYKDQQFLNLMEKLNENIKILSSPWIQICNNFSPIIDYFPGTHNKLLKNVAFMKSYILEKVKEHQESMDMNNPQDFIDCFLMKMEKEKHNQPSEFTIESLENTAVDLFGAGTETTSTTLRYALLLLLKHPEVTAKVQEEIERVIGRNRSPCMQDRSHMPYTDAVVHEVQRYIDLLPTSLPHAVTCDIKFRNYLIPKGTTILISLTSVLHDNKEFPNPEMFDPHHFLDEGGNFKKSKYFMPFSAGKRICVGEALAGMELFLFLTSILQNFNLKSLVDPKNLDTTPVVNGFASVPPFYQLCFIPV
Sequence of UniProt Q8WZA2 (Q8WZA2 whole entry, looked up): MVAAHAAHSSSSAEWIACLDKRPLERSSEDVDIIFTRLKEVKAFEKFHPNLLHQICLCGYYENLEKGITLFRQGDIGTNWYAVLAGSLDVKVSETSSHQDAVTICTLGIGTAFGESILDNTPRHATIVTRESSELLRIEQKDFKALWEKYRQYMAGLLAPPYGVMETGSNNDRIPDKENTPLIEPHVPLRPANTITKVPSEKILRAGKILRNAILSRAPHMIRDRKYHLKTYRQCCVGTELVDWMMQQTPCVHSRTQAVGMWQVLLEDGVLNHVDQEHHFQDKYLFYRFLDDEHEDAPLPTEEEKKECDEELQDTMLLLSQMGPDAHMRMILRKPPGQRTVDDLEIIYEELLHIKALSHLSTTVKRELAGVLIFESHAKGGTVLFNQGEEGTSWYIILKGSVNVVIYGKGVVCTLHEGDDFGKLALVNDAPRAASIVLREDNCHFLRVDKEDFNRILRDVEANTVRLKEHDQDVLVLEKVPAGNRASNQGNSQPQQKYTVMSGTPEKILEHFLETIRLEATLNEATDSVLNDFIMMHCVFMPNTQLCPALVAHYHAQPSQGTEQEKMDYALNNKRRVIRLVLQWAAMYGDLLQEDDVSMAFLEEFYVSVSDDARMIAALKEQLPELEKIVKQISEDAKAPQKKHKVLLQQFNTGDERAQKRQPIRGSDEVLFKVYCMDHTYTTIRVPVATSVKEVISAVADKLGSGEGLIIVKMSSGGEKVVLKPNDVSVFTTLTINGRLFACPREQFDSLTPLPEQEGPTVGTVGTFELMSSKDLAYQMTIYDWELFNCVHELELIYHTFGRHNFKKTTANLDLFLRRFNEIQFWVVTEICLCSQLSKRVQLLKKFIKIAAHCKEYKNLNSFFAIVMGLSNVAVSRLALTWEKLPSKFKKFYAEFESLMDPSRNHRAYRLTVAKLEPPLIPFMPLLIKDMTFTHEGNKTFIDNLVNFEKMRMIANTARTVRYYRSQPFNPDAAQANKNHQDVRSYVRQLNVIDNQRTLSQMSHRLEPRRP
Sequence of UniProt P08684 (P08684 whole entry, looked up): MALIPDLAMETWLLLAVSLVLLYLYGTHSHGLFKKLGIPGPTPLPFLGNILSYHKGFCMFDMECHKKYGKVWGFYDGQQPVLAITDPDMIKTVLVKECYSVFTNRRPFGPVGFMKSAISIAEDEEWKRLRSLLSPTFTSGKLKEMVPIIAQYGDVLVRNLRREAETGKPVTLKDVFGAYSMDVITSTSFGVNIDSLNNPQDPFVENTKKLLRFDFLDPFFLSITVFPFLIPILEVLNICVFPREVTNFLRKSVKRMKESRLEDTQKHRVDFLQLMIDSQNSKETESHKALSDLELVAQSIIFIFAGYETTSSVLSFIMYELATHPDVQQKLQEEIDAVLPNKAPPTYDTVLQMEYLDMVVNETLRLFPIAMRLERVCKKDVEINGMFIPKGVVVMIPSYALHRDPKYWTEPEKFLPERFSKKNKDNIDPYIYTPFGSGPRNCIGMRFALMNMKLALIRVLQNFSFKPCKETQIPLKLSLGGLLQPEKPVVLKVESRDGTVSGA

For `OCCN1CCN(CCCN2c3ccccc3Sc3ccc(Cl)cc32)CC1`, the Potency [1] was active: 3.98 µM, the Potency [2] was active: 8.41 µM and the Potency [3] was active: 9.44 µM. For the same compound, the Potency [4] was inconclusive: 79.3 µM [activator, partial curve, poor fit] and the Potency [5] was inconclusive: 15.6 µM [inhibitor, full curve].
With `COc1ccc(S(=O)(=O)Nc2cccnc2Nc2ccc(O)cc2)cc1` the Potency [6] was inconclusive: 16.9 µM [inhibitor, partial curve, poor fit].
With `O=c1c(-c2ccccc2)c1-c1ccccc1` the Potency [1] was inconclusive: 17.8 µM [inhibitor, single point], the Potency [7] was inconclusive: 21.9 µM [inhibitor, single point] and the Potency [2] was inconclusive: 33.5 µM [inhibitor, single point]. The Potency [3] was inconclusive: 29.9 µM [inhibitor, single point].
With `CC(C)(C)NC(=O)[C@H]1CC[C@H]2[C@@H]3CC[C@H]4NC(=O)C=C[C@]4(C)[C@H]3CC[C@]12C` the Potency [1] was “inactive”, the Potency [2] was inconclusive: 18.8 µM [inhibitor, partial curve, poor fit] and inconclusive: 16.6 µM [inhibitor, partial curve, poor fit] and the Potency [3] was inconclusive: 8.41 µM [inhibitor, partial curve] and inconclusive: 37.2 µM [inhibitor, partial curve, poor fit].
With `Cc1cc(NC(=O)Nc2ccc(N(C)C)cc2)c2cc(F)cc(F)c2n1` the Potency [8] was inconclusive: 10 µM [inhibitor, partial curve, poor fit] and the Potency [3] was inconclusive: 4.07 µM [inhibitor, full curve].
For `CC1=C(/C=C/C(C)=C/C=C/C(C)=C/C(=O)O)C(C)(C)CCC1`, the Potency [1] was inconclusive: 35.5 µM [inhibitor, single point], the Potency [6] was “inactive” and the Potency [9] was inconclusive: 19.5 µM [falling, partial curve]. For the same compound, the Potency [7] was inconclusive: 27.5 µM [inhibitor, partial curve, poor fit], the Potency [2] was inconclusive: 18.6 µM [inhibitor, partial curve] and the Potency [3] was inconclusive: 29.9 µM [inhibitor, single point] and inconclusive: 37.2 µM [inhibitor, single point].
With `Oc1cc(-c2nc(-c3ccccc3)[nH]c2-c2ccncc2)ccc1Cl` the Potency [6] was active: 0.756 µM, the Potency [7] was active: 1.69 µM and the Potency [2] was active: 11.8 µM and active: 18.3 µM. For the same compound, the Potency [3] was active: 13.2 µM and active: 16.4 µM.
In the case of `C[C@@H]1C[C@H]2[C@@H]3C[C@H](F)C4=CC(=O)C(Cl)=C[C@]4(C)[C@@]3(F)[C@@H](O)C[C@]2(C)[C@@]1(O)C(=O)CO`, the Potency [6] is reported as inconclusive: 15.5 µM [inhibitor, partial curve], the Potency [7] is reported as “inactive” and the Potency [2] is reported as inconclusive: 18.8 µM [inhibitor, partial curve]. The Potency [3] was inconclusive: 0.0008 µM [inhibitor].
With `CC(C)(C)C(=O)OCOC(=O)[C@@H]1N2C(=O)[C@@H](NC(=O)[C@H](N)c3ccccc3)[C@H]2SC1(C)C` the Potency [6] was “inactive” and the Potency [7] was inconclusive: 27.5 µM [inhibitor, single point].
In the case of `COC(=O)[C@@H]1CC2=CC(=O)CC[C@]2(C)[C@@]23O[C@@H]2C[C@@]2(C)[C@@H](CC[C@@]24CCC(=O)O4)[C@H]13`, the Potency [6] is reported as inconclusive: 38.9 µM [inhibitor, single point] and the Potency [3] is reported as “inactive”.
For `CCc1c(C)[nH]c2c1C(=O)C(CN1CCOCC1)CC2` (stereo unspecified), the Potency [6] was inconclusive: 6.92 µM [inhibitor, partial curve], the Potency [2] was inconclusive: 29.9 µM [inhibitor, single point] and the Potency [3] was inconclusive: 18.8 µM [inhibitor, partial curve].
In the case of `CC[C@H]1OC(=O)C[C@@H](O)[C@H](C)[C@@H](O[C@@H]2O[C@H](C)[C@@H](O)[C@H](N(C)C)[C@H]2O)[C@@H](CCN2C[C@H](C)C[C@H](C)C2)C[C@@H](C)C(=O)/C=C/C(C)=C/[C@@H]1CO[C@@H]1O[C@H](C)[C@@H](O)[C@@H](OC)[C@H]1OC`, the Potency [6] is reported as inconclusive: 23.9 µM [inhibitor, partial curve, poor fit] and the Potency [2] is reported as “inactive”.
For `c1cnc(N2CCN(Cc3ccc4c(c3)OCO4)CC2)nc1`, the Potency [6] was active: 0.871 µM, the Potency [7] was active: 11 µM and the Potency [2] was “inactive”.
